Here are results for four molecules from ChEMBL document CHEMBL3751743, “Synthesis and anti-cancer screening of novel heterocyclic-(2H)-1,2,3-triazoles as potential anti-cancer agents” (Medchemcomm, 2015).

A word on the GI50: it is the concentration at which growth is held to half of that of the control.

Some results are limits rather than exact numbers.

The subject of the experiment is NCI-H322M. As to conditions: Homo sapiens, 48 h.
In turn, `COc1cc(OC)cc(-c2n[nH]nc2-c2c[nH]c3ccccc23)c1` yielded a 50% growth inhibitory concentration (GI50) of 40.7 µM.
The figure for `COc1ccc(-c2n[nH]nc2-c2csc3ccccc23)cc1OC` is 7.79 µM.
`COc1cc(-c2nn(C)nc2-c2cc3ccccc3s2)cc(OC)c1OC` had a concentration for 50% growth inhibition (GI50) of 1.26 µM.
As for `COc1cc(-c2n[nH]nc2-c2cc3ccccc3s2)cc(OC)c1OC`, the figure is under 0.01 µM.
